Experimental findings from PubChem BioAssay AID1346428 (National Center for Advancing Translational Sciences (NCATS), 2018) are described below.

Molecules are shown by their SMILES. “And” between values parts separate entries of the source, which are not always exact repeats. Equal entries are not always repeated. In all, about 48,000 compounds went through this assay and about 1,200 (2.5%) were called active. Not shown: some 2% with an inconclusive outcome.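 How the source made its calls: active means activation of at least 60% and not above a set upper limit (about 1 call in 100 departs from these limits); inconclusive means activation of 40% to 60%, or above that upper limit; inactive means activation under 40%.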 The list shows a part of the results.

The test has as its target Probable G-protein coupled receptor 32 (Homo sapiens) (UniProt O75388). Nature of the test: qHTS for Agonists of Human Resolvin D1 Receptor DRV1. Further: 0% is about no effect. Particulars: CHO-K1 GPR32 beta-arrestin PathHunter luminescence, 90 min; at 76.9 µM; active compounds read high; zero percent set by DMSO-only wells. The gist of the method: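 PathHunter enzyme-fragment complementation, CHO-K1 GPR32 stable line; 2,500 cells/well, overnight attach; cpd 90 min 37 °C 5% CO2; detection reagent 1 h RT; chemiluminescence. DMSO = EC0.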
Sequence of UniProt O75388 (O75388 whole entry, looked up, the tested form may be a part): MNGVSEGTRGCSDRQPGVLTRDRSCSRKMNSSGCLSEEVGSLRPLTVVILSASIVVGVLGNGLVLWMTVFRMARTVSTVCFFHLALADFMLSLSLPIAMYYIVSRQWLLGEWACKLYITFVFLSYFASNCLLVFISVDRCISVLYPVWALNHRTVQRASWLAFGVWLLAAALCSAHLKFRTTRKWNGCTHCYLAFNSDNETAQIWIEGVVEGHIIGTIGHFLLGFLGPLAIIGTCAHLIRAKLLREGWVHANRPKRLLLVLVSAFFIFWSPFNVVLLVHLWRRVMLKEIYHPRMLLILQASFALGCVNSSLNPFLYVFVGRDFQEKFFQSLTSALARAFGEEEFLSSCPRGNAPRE
Turning to `CCCCN(CCCC)CCCNC(=O)Cn1cc2c(n1)-c1c(oc(C(=O)N3CCCC3)c1C)CC2`, the activation was inactive: -21.1%.

Turning to `CCCc1nc2nc(C)c(NS(=O)(=O)c3ccc(CC(C)C)cc3)c(=O)n2[nH]1`, the activation is inactive: 8.75%.

Consider `CCOC(=O)c1ccc(N2C(=O)c3[nH]nc(-c4ccc(C)cc4)c3C2c2cccs2)cc1` (centres undefined), for which the activation was inactive: -8.98%.

Regarding `CCCn1c(CCC(=O)Nc2cc(C(=O)OC)cc(C(=O)OC)c2)nc2cccnc21`, the activation was inactive: 4.51%.

`Cc1ccccc1CCNC(=O)c1ccc2c(c1)nc1n2CCOC1`: the activation was inactive: -5.83%.

In the case of `CCOC(=O)c1[nH]cnc1C(=O)Nc1cccc(OC)c1`, the activation was inactive: 16.3%.

Regarding `CCCCOc1ccc(Cn2c(=O)sc3ccccc32)cc1OC`, the activation is inactive: -17.8%.

Turning to `CCCn1c(CCC(=O)Nc2cc(OC)cc(OC)c2)nc2cccnc21`, the activation is inactive: 1.16%.

In the case of `COC(=O)c1scc(-c2ccc(C)cc2)c1S(=O)(=O)Nc1cc(Cl)c(OC)cc1OC`, the activation is inactive: -2.25%.

For `NC(=O)Cc1cccc(C(=O)c2ccccc2)c1N`, the activation was inactive: -0.514%.

For `CCC(=O)N1c2ccccc2CC1C(=O)NCCc1cc(OC)c(OC)c(OC)c1` (centres undefined), the activation is inactive: -7.69%.

For the compound `Cc1cc(NC(=O)CCn2c(=O)c3cccn3c3cccnc32)ccc1Br`, the activation was inactive: -12.6%.

For the compound `COc1ccc(-n2c(=O)c3sc4ccccc4c3n(C)c2=O)cc1`, the activation is inactive: -19.5%.

Consider `Cc1ccc(NC(=O)C2CCCN(S(=O)(=O)c3cccc4nsnc34)C2)cc1C` (centres undefined), for which the activation was inactive: -6.93%.

As to `CCCN1CCN(c2nnc(-n3cccc3C(=O)Nc3cc(Cl)ccc3C)s2)CC1`, the activation is inactive: -32.1%.

`CCSc1ncc(Cl)c(C(=O)Nc2nc3ccc(S(C)(=O)=O)cc3s2)n1`: the activation is inactive: -8.03%.

Regarding `CC(=O)SCC[N+](C)(C)C`, the activation was inactive: 9.75%.

For `O=C1NCN(c2ccccc2)C12CCN(CCCC(c1ccc(F)cc1)c1ccc(F)cc1)CC2`, the activation is inactive: 5.84% and inactive: -42.7%.

On to `O=C(C1CCCN(S(=O)(=O)c2cccc3nsnc23)C1)N1CCN(c2ccccc2)CC1` (centres undefined), for which the activation is inactive: 29.1%.

As for `Cc1ccc(C)c(CN2C(=O)C(O)(c3c(C)[nH]c4ccccc34)c3ccccc32)c1` (centres undefined), the activation is inactive: -11%.

Take `COc1ccc(OC)c(CNC(=O)c2ccc3c(c2)c(C)c(C)n3Cc2ccc(Cl)cc2)c1`: the activation was inactive: -21.2%.

Take `Nc1c(C(=O)Nc2ccccc2Cl)c2ccccn2c1C(=O)c1ccccc1`: the activation was inactive: -1.6%.

On to `CCOc1ccc(NC(=O)c2c(NCc3cccc(OC)c3OC)sc3c2CCC3)cc1`, for which the activation was inactive: -15.6%.

Turning to `CCc1ccc(NC(=O)CN(c2ccc(Cl)cc2)S(=O)(=O)c2ccsc2C(=O)OC)cc1`, the activation was inactive: -7.38%.
